Source: PubChem BioAssay (NCI)
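96-well plates; 48 h exposure; 5 concentrations. Endpoints by linear interpolation between flanking doses. Not reached: highest tested concentration assigned. The concentration for 50% growth inhibition is given as GI50. TGI: concentration producing complete growth inhibition.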

Tested on: NCI-H322M lung
Test: growth of human tumour cells (NCI), 48 h

Molecule `COc1ccc(C2C(C#N)=C(/N=C/c3ccc(Cl)cc3)Oc3c2sc2c(C)cccc32)cc1` (centres undefined) has a GI50 of 7.28 µM and a TGI of 24.8 µM.
With `Cc1ccc(NC(=O)Nc2nc3ccc([N+](=O)[O-])cc3s2)cc1` the GI50 was 3.13 µM and the TGI was 11.1 µM.
